The shares of active, inactive and inconclusive entries below differ from those in the screen. Potencies of inconclusive entries are doubtful fits and often do not repeat. Active and inactive are the calls of the source. Calls come from the whole dose curve; as a rule, active = well fitted inhibition curve with a large enough effect; inconclusive = small, poorly fitted or top-dose-only effect, or another doubt; inactive = no such curve, though single readings can be large or run the other way.
molecular target: DNA polymerase eta (Homo sapiens) (UniProt Q9Y253); assay: qHTS for Inhibitors of Polymerase Eta: Confirmatory Assay for Cherry-picked Compounds (AID 720502); conditions: Pol eta primer extension, TAMRA/BHQ fluorescence, 10 min
UniProt Q9Y253, sequence (Q9Y253 whole entry, looked up): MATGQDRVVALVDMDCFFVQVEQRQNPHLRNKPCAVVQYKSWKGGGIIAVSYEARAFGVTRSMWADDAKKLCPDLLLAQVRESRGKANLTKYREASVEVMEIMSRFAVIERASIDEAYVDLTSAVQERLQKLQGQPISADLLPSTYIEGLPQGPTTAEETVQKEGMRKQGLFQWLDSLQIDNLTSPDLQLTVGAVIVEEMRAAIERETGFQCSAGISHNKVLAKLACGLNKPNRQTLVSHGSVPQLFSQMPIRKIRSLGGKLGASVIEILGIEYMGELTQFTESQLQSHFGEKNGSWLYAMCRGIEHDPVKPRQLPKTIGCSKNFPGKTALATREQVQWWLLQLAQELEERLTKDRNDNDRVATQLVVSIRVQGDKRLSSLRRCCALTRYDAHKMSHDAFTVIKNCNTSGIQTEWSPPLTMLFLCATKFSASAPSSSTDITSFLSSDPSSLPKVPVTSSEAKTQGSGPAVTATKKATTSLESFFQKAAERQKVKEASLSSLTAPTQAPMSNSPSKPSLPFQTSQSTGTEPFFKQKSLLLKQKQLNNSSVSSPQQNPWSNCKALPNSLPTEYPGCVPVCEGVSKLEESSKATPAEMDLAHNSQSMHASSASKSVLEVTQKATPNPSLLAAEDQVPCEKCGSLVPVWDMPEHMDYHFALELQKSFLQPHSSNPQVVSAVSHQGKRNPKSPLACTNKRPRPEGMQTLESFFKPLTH
In short: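 Enzyme at 10 nM is mixed with pin-transferred compound and left 15 min at room temperature. Substrate (50 nM final) is then added, and plates are read at 0 min and after 10 min.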
Potency is the fitted concentration of half-maximal effect; tags give direction and shape of the fitted curve.

Potency, active:
Cc1ccc(N2NC(=O)/C(=C/c3ccc(-c4ccc(Cl)c(C(=O)O)c4)o3)C2=O)cc1 60.1 µM
Cc1csc(N/N=C/c2ccc(O)c([N+](=O)[O-])c2)n1 37.9 µM
Cc1ccoc1C(=O)NCc1occc1C(=O)O 30.1 µM
CSc1nsc(/C=C/Nc2ccc(C(=O)O)cc2)c1C#N 42.6 µM
Nc1ncnc2oc(-c3ccco3)c(-c3ccco3)c12 84.9 µM
COc1ccc2[nH]c3c(C)c4cc[n+](C)cc4c(C)c3c2c1 9.53 µM
O=C(Nc1sc2c(c1C(=O)O)CCC2)c1ccccc1 75.7 µM
Oc1c(Br)cc(/C=N/Nc2ccc(Cl)nn2)cc1Br 84.9 µM
CN1C(=CC=C2C=C(I)C(=O)C(I)=C2)C(C)(C)c2ccccc21 47.8 µM

Potency, inconclusive:
COc1ccc2c(c1OC)C(=O)OC2Nc1nc(-c2cc3cc(Br)ccc3oc2=O)cs1 (stereo not given) 95.3 µM [inhibitor, single point]
O=C(/C=C/c1ccco1)NC(=S)Nc1ccccc1O 84.9 µM [inhibitor, single point]
CN(c1ccccc1C(=O)O)S(=O)(=O)c1ccc2c3c(cccc13)C(=O)N2 84.9 µM [inhibitor, single point]
Cc1ccc(-n2[nH]c(C)c(/C=N/Nc3ccc([N+](=O)[O-])cc3[N+](=O)[O-])c2=O)cc1C 84.9 µM [inhibitor, single point]
COc1ccccc1/C=C1/SC(=O)N(CCC(=O)Nc2ccc(S(=O)(=O)Nc3nccs3)cc2)C1=O 84.9 µM [inhibitor, single point]
O=c1c(C=Nc2cccc(C(F)(F)F)c2)c[nH]n1-c1cccc(Cl)n1 84.9 µM [inhibitor, single point]
COC1=C/C(=C/c2c(N)n3nc(CC(=O)N4CCOCC4)sc3nc2=O)C=CC1=O 75.7 µM [inhibitor, single point]
CCOC(=O)/C=C/C(=O)Nc1ccc(S(=O)(=O)Nc2nccs2)cc1 84.9 µM [inhibitor, single point]
O=C(O)CCN1CCc2ccccc21 75.7 µM [inhibitor, partial curve, poor fit]
Cc1ccc(NC(=O)CN2C(=O)N/C(=C\c3cccn3-c3ccc(C(=O)NS(C)(=O)=O)cc3)C2=O)cc1 95.3 µM [inhibitor, single point]
CCN(CC)S(=O)(=O)c1ccc(NC(=O)Cc2cccs2)cc1 75.7 µM [inhibitor, single point]
O=C(Nc1nnc(-c2ccccc2F)s1)C1CCCO1 (stereo not given) 95.3 µM [inhibitor, single point]
Cc1ccc(-c2nc3c(c(SCC(=O)N4CCOCC4)n2)Cc2c(CO)cnc(C)c2O3)cc1 84.9 µM [inhibitor, single point]
Cc1[nH]c2ccccc2c1/C=N/Nc1cccc(C(=O)O)c1 84.9 µM [inhibitor, single point]
O=C(O)COc1ccccc1C(Nc1ccccn1)c1cc(Cl)c2cccnc2c1O (stereo not given) 95.3 µM [inhibitor, single point]
Cc1cc(O)c(C(=O)/C=C/c2c(F)c(F)c(F)c(F)c2F)c(=O)o1 75.7 µM [inhibitor, partial curve]
C=CCc1cccc2cc(C(=O)Nc3ccccc3C(=O)O)c(=O)oc12 95.3 µM [inhibitor, single point]
COc1cc(OC)c2ccc(=O)oc2c1C(CC(=O)N1CCCC1)c1ccc2c(c1)OCO2 (stereo not given) 84.9 µM [inhibitor, single point]
O=C(COC(=O)c1cncc(Br)c1)NCc1ccco1 60.1 µM [inhibitor, partial curve, poor fit]
O=C(CCCn1c(=O)c2sccc2n(CC(=O)NCc2ccco2)c1=O)NCc1ccco1 84.9 µM [inhibitor, single point]
Oc1ccc(C=Nc2ccc(N3CCOCC3)cc2)c(O)c1 84.9 µM [inhibitor, single point]
CN(Cc1ccco1)S(=O)(=O)c1nnc(NC(=O)c2ccccc2Cl)s1 84.9 µM [inhibitor, single point]
O=C(O)CCc1ccc(-c2cccs2)n1CCC(=O)O 95.3 µM [inhibitor, single point]
N#Cc1ccccc1OCC(=O)NC(=O)NCc1ccco1 84.9 µM [inhibitor, single point]
NNc1nccc(Nc2ccccc2C(=O)O)n1 84.9 µM [inhibitor, single point]
Cc1ccccc1NS(=O)(=O)c1ccc2[nH]cc(C(=O)N3CCCC3)c(=O)c2c1 84.9 µM [inhibitor, single point]
O=C1Nc2ccccc2SC(c2ccccc2)C1O (stereo not given) 84.9 µM [inhibitor, single point]
COCCn1c(SC(C)C(=O)NCC2CCCO2)nc2sc3c(c2c1=O)CCC3 (stereo not given) 95.3 µM [inhibitor, single point]
O=C(N/C=C/c1ccco1)OCc1ccccc1 84.9 µM [inhibitor, single point]
O=C(CSc1ncnc2sc3c(c12)CCC3)N1CCOCC1 84.9 µM [inhibitor, single point]
CC(=C/C(=O)O)/C=C/c1ccco1 84.9 µM [inhibitor, single point]
